Among the data in the supplement of paper PMC4604168 (melanoma cell lines) are cell count values, retold here.

The list shows a part of the results. Single values are uncertain, as repeats are few or missing.
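Note: cells treated in 1,536-well plates, then fixed and DAPI-stained, with nuclei counted from automated high-throughput microscope images.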

This assay relates to A101D. Description: cell count relative to DMSO control; melanoma cells; higher = more viable cells. The settings on record: library dose: standard library concentration; 72 h.
Molecule `O=C(O)c1ccc2c(c1)nc(Nc1cccc(Cl)c1)c1ccncc12` + CC(=O)c1c(C)c2cnc(Nc3ccc(N4CCNCC4)cn3)nc2n(C2CCCC2)c1=O [palbociclib] (first compound 2 µM, partner dose 0.2 µM) came in with a cell count of 69.9%. The figure for `O=C(Nc1cc(C(F)(F)F)cc(C(F)(F)F)c1)c1cc(Cl)ccc1O` + COc1ccc(C2=N[C@@H](c3ccc(Cl)cc3)[C@@H](c3ccc(Cl)cc3)N2C(=O)N2CCNC(=O)C2)c(OC(C)C)c1 [Nutlin-3] (first compound 0.08 µM, partner dose 0.5 µM) is 74.9%; for `O=C(O)c1ccc2c(c1)nc(Nc1cccc(Cl)c1)c1ccncc12` + CC1(C)NC(=O)N(c2ccc([N+](=O)[O-])c(C(F)(F)F)c2)C1=O [nilutamide] (first compound 2 µM, partner dose 5 µM) it is 86.7%. The same measure for `O=C(O)[C@@H]1[O][Sb](=[O])([O][Sb]2(=[O])[O][C@H]([C@H](O)CO)[C@H](O)[C@H](C(=O)O)[O]2)[O][C@H]([C@H](O)CO)[C@@H]1O` (some centres not stated) [stibogluconate] + CO[C@@H]1[C@H](N(C)C(=O)c2ccccc2)C[C@H]2O[C@]1(C)n1c3ccccc3c3c4c(c5c6ccccc6n2c5c31)C(=O)NC4 [Midostaurin] (first compound 10 µM, partner dose 0.4 µM): 47.5%. The figure for `Cn1nnc2c(C(N)=O)ncn2c1=O` [temozolomide] + C=CCn1c(=O)c2cnc(Nc3ccc(N4CCN(C)CC4)cc3)nc2n1-c1cccc(C(C)(C)O)n1 [MK1775] (first compound 10 µM, partner dose 0.1 µM) is 50.8%; for `O=C(O)[C@@H]1[O][Sb](=[O])([O][Sb]2(=[O])[O][C@H]([C@H](O)CO)[C@H](O)[C@H](C(=O)O)[O]2)[O][C@H]([C@H](O)CO)[C@@H]1O` (some centres not stated) [stibogluconate] + CO[C@H]1C[C@@H]2CC[C@@H](C)[C@@](O)(O2)C(=O)C(=O)N2CCCC[C@H]2C(=O)O[C@H]([C@H](C)C[C@@H]2CC[C@@H](OCCO)[C@H](OC)C2)CC(=O)[C@H](C)/C=C(\C)[C@@H](O)[C@@H](OC)C(=O)[C@H](C)C[C@H](C)/C=C/C=C/C=C/1C [everolimus] (first compound 10 µM, partner dose 0.1 µM) it is 69.2%.

`O=C(O)[C@@H]1[O][Sb](=[O])([O][Sb]2(=[O])[O][C@H]([C@H](O)CO)[C@H](O)[C@H](C(=O)O)[O]2)[O][C@H]([C@H](O)CO)[C@@H]1O` (some centres not stated) [stibogluconate] + COc1cc(Nc2ncc(F)c(Nc3ccc4c(n3)NC(=O)C(C)(C)O4)n2)cc(OC)c1OC [Tamatinib] (first compound 10 µM, partner dose 2 µM) came in with a cell count of 16%. The figure for `Cc1cc(N2CCOCC2)cc2[nH]c(-c3c(NC[C@@H](O)c4cccc(Cl)c4)cc[nH]c3=O)nc12` + OCCn1cc(-c2cnc3nnn(Cc4ccc5ncccc5c4)c3n2)cn1 [PF04217903] (first compound 1 µM, partner dose 5 µM) is 103%. The figure for `O=C(O)c1ccc2c(c1)nc(Nc1cccc(Cl)c1)c1ccncc12` + Clc1ccc(Nc2nnc(Cc3ccncc3)c3ccccc23)cc1 [vatalanib] (first compound 2 µM, partner dose 10 µM) is 85.3%; for `O=C(Nc1cc(C(F)(F)F)cc(C(F)(F)F)c1)c1cc(Cl)ccc1O` + OCCn1cc(-c2cnc3nnn(Cc4ccc5ncccc5c4)c3n2)cn1 [PF04217903] (first compound 0.08 µM, partner dose 5 µM) it is 79.5%; for `O=C(O)[C@@H]1[O][Sb](=[O])([O][Sb]2(=[O])[O][C@H]([C@H](O)CO)[C@H](O)[C@H](C(=O)O)[O]2)[O][C@H]([C@H](O)CO)[C@@H]1O` (some centres not stated) [stibogluconate] + CN(NC(=O)CC(=O)NN(C)C(=S)c1ccccc1)C(=S)c1ccccc1 [STA4783] (first compound 10 µM, partner dose 0.03 µM) it is 75.6%.

Consider `O=C(Nc1cc(C(F)(F)F)cc(C(F)(F)F)c1)c1cc(Cl)ccc1O` + CCN(CC)CCNC(=O)c1c(C)[nH]c(/C=C2\C(=O)Nc3ccc(F)cc32)c1C [sunitinib] (first compound 0.08 µM, partner dose 2 µM), for which the cell count stood at 67.3%.
